The supplement of paper PMC11417369
± gives the standard deviation of the averaged measurements. The list shows a part of the results.

These sequences were tested on PfAP2-EXP AP2 domain (GST-tagged) (assay: gcPBM binding intensity (ln(normalized median fluorescence intensity)); higher = stronger DNA binding).
How it was run: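 Binding of GST-tagged P. falciparum DNA-binding domains, expressed in E. coli and used at about 25 μg on average, was carried out for 1 h in 1× PBS containing 1% milk, 0.2 mg/ml BSA, 0.5% salmon testes DNA and 0.03% Triton X-100. The target was an Agilent 4 × 180k array of primer-extended double-stranded 36-bp intergenic genomic probes plus negative controls, read with Alexa488 anti-GST antibody at 488 nm. Binding intensity is the highest Masliner-normalised natural-log median intensity across replicate spots of either probe orientation.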

Row | Sequence | gcPBM binding intensity (ln)
1 | ATATATGTATATGTGTGTACATATATGTTTATTATT [XGTACX_site6043] | 8.43 ± 0.28
2 | TTTTTTTTTTTTTTTACACACAAATGTATACTATAT [CACACA_site1787] | 8.46 ± 0.43
3 | TATTAAATATTCATATGTACATATAGTTTATAAATT [XGTACX_site7455] | 8.52 ± 0.33
4 | AAAACGGATTCTTTATAAATAAATAAATAAATATAA [XGTACX_negctrl_site157] | 8.36 ± 0.42
5 | ATATATGTATGTTAGACACACATATTATAATATGTT [CACACA_site116] | 8.53 ± 0.42
6 | AATACATACACAAATACACACACAAATACATACACA [CACACA_site8134] | 8.68 ± 0.52
7 | TTTTTTGTTATGCGGGTGCATATAATAATGTGATGA | 8.76 ± 0.16
8 | TTATTTGTATCCATTTCACACATTTTATATAGTATC [CACACA_site5989] | 8.77 ± 0.45
9 | TATATGTTTTATAAATGTACATATACTTAAATATTT [XGTACX_site4753] | 8.49 ± 0.52
10 | TTATGTGCTTTAAAAGTGCATTTTTTTTTTTTTTTT | 8.68 ± 0.13
11 | TTTATCAAAAAAAAAAAAAAAAAAAAAAAAAATTGT [CACACA_negctrl_site176] | 7.88 ± 0.52
12 | ACTATTAAGAATAAAGAAATATGTAATTGTATTTAA [CACACA_negctrl_site516] | 8.22 ± 0.42
13 | AATACATAATAACGTTGTACAAAAATTATAATACAT [XGTACX_site6508] | 8.94 ± 0.42
14 | TATAAATAAATGTGTACACACATTAAAATCAAACGT [CACACA_site2340] | 8.96 ± 0.39
15 | ATAAATATAAAAAAATGTACATATAGTAATACATAC [XGTACX_site508] | 8.6 ± 0.3
16 | GACTTTTCATTTATAGTGCAAGTTTTTTTTTTTTTT [GTGCAC_site9698] | 8.43 ± 0.18
17 | ATAAGTATAAGAATCAGTACACAGTTTCTACATACT [XGTACX_site5834] | 8.53 ± 0.21
18 | GAAATAAAAAGAAATGCATGTAATTTTTTTTTTTTT [TGCATGCA_site928] | 8.61 ± 0.23
19 | TATATATCATTTAAAACACACAAAAAAAAAAGTTAT [CACACA_site6191] | 8.69 ± 0.53
20 | ATTAAAACCAATTAAAAAAAATTTATAATGGAAGCA [TGCATGCA_negctrl_site273] | 8.47 ± 0.16
21 | AATGACTAAATTTAAACACACAAGGGGAGTTTACTT [CACACA_site918] | 8.37 ± 0.43
22 | GAGATAAAATAAAACACACACATATATATATATAAT [CACACA_site5246] | 8.63 ± 0.47
23 | TATTATTGTTGTTCATGTACACACTATAATAAAAGC [XGTACX_site8957] | 8.64 ± 0.4

Row | Sequence | gcPBM binding intensity (ln)
24 | AATAAATAAGCACATACACACATACATACATACATA [CACACA_site6075] | 8.63 ± 0.4
25 | TTGTATTTTTAAATGACACACACATATATATATATA [CACACA_site8481] | 10.1 ± 0.38
26 | AAGTTATAAAAATAAAGTACAAAGTAGCTATTTTTT [XGTACX_site3144] | 8.36 ± 0.35
27 | TTTATTATCGTTCTCATACACACAAAATATACATAC [CACACA_site2642] | 8.79 ± 0.45
28 | TAGGCGTTTAATAAAAGTACCCACACATATATTATT [XGTACX_site1932] | 8.55 ± 0.38
29 | CATAAATTAATAGTCACACACGTATTTTTTATATAT [CACACA_site2526] | 8.46 ± 0.47
30 | AAATATATATGTGGGGGTACTAATAAAAAAACCCCT [XGTACX_site2657] | 8.86 ± 0.32
31 | ATTTAACAACTTCAAACACACAATATATATATATAT [CACACA_site2093] | 10.1 ± 0.18
32 | AATTCAAATATAAATACACACACATAGCTACAAAAT [CACACA_site9386] | 8.87 ± 0.52
33 | TGAAAAAAAAAAAAAAAAAAAAGAAAAAAAAAAAAA [CACACA_negctrl_site709] | 8.11 ± 0.22
34 | TTACACAAACAAATTATGGACACATAAGTAAAAGGA [CACACA_negctrl_site1622] | 9.01 ± 0.4
35 | TATAATTCATATGAAACACACATTTATTTTAATTAC [CACACA_site3686] | 8.45 ± 0.41
36 | TTATCCATAAAAAAGTGTACGCACTAAAATTGAAAA [XGTACX_site5460] | 8.69 ± 0.15
37 | GAAAAAAGAAAAAAAAGTACATATATTTAATAAGAC [XGTACX_site6912] | 8.93 ± 0.35
38 | GTTATTTATAGACACACACACATGCATGCACATATA [CACACA_site6204] | 10.2 ± 0.39
39 | TATAGGTATGTATGTACACACAAAAAATGGAATATA [CACACA_site7704] | 8.93 ± 0.39
40 | TATATATATATATATTGTACATAATGTATATATGTT [XGTACX_site3448] | 10 ± 0.35
41 | CACACCCACAGACACACACACACATATATATATATA [CACACA_site363] | 10 ± 0.099
42 | ATATATATATATATTTGTACATATATACATAAAATT [XGTACX_site359] | 10.1 ± 0.26
43 | GAAAAAGTTATAAATTGTACTAAATATTAAATATTG [XGTACX_site7890] | 8.2 ± 0.38
44 | TTTAAAATGGGACTTTGAAAAAAAAAAAAAAAAACA [TGCATGCA_negctrl_site111] | 8.24 ± 0.44
45 | CATATATATTTGTTCACACACACACCCAAAAAAAAA [CACACA_site2476] | 8.7 ± 0.49
46 | CATATGTTCATCATAGCACACATATATAAATTACAA [CACACA_site9177] | 8.35 ± 0.22

Row | Sequence | gcPBM binding intensity (ln)
47 | AAAAAAAAAAAAAGGTGTACATGCAAAATAAATTCT [XGTACX_site4592] | 9.14 ± 0.31
48 | AAATAAATAAGAAACGCATGCATATATAATATATAA [TGCATGCA_site326] | 9.67 ± 0.085
49 | CAAAGATATATAAACACACAAATATAACATATATAC [CACACA_site7395] | 8.72 ± 0.49
50 | TATGAATATCTATACACACACATATATATACTCACT [CACACA_site1597] | 8.55 ± 0.36
51 | TATGTATATTTTTTTGTGCACATATATATATATATA | 10.2 ± 0.26
52 | TACACTTGTAATTGCGTGCACGAAGGATATATATAT | 9.665 ± 0.092
53 | TATATTATTATATATTGTACTTTTTATATTTGCATT [XGTACX_site2978] | 8.62 ± 0.36
54 | TTTCTTATATAAGTGTACTAAAATATATATATGCAA [GTGCAC_negctrl_site546] | 8.63 ± 0.4
55 | ATTTTTTTTTTAAAATGTACATGAGAAATTGTATAT [XGTACX_site425] | 8.43 ± 0.37
56 | TAAAAAAATAAATATACACACATATATAAATATGTA [CACACA_site6641] | 8.11 ± 0.28
57 | TATATTATTAATTAAGCACACATTATTTTTATAATA [CACACA_site3982] | 8.22 ± 0.37
58 | TAACATAATATAGACACACACATGTACATATGCCAA [CACACA_site1842] | 8.65 ± 0.42
59 | TTATAAAAAAAAATAACACACAGACATAAGAATAAA [CACACA_site9383] | 8.68 ± 0.2
60 | TATATTAAGTATAAGACACACATATAGTAATAGAAA [CACACA_site5176] | 8.62 ± 0.45
61 | TACTATATCGATACCAGTACAGATTTATAAATAATA [XGTACX_site7491] | 8.47 ± 0.49
62 | AAATATAATAATAATTTAAGAATCTAATATTTTATA [CACACA_negctrl_site831] | 7.71 ± 0.41
63 | GGTATACATATTAAATGTACATATTTTAACAATAAG [XGTACX_site4868] | 8.51 ± 0.16
64 | AAGTGTCAAAGTTACACACACAAACTTGTCATTTTT [CACACA_site837] | 8.54 ± 0.35
65 | ATATAACTTTTCTTAACACACAAAAAACAAAAATAA [CACACA_site2380] | 8.65 ± 0.5
66 | ATATAATTATATAAATGTACTCATTCGTTATTTTGC [XGTACX_site6132] | 8.5 ± 0.41
67 | TTATTCAGAAAAAAAAAAAAAAAAAAAAAAAAAAAA [CACACA_negctrl_site1662] | 8.03 ± 0.34
68 | GAGAAGACATTACACAGTACCCAGGAAATCTACGGA [XGTACX_site1993] | 8.59 ± 0.54
69 | TTTTTTTTAATTGTGATACGTATATTATTTTTTGAT [TGCATGCA_negctrl_site318] | 8.45 ± 0.49

Row | Sequence | gcPBM binding intensity (ln)
70 | ATTTTTAATATTATTACACACACTAATAAAAAAAAA [CACACA_site8265] | 8.21 ± 0.33
71 | TATATATATGTGCAGTGTACTTTTTTTTTCTGTAAG [XGTACX_site3424] | 8.76 ± 0.18
72 | ATATGTAAAGAAAAGTAAACACTAATTTTAAACAAT [CACACA_negctrl_site11] | 8.62 ± 0.42
73 | ATATATATATATATATGTACTTAATATTTCTTATTT [XGTACX_site6206] | 10.1 ± 0.33
74 | TGACGAAAAAAAAGGGTGCTTAGTATAACTTTAAAG | 8.71 ± 0.52
75 | TTCTTTTTTAAACACACACACACAAGAAAATATATA [CACACA_site5680] | 8.84 ± 0.57
76 | TGATTAAAAGAGGGAAAAAAAAAAAAAAAAAAAAAA [CACACA_negctrl_site896] | 8.06 ± 0.43
77 | TCGACAAATGTATATACACACATTTGTAACATAAAT [CACACA_site560] | 8.41 ± 0.42
78 | TATAAAGGTGAAATTTGTACATAGTCATTTTTTAAT [XGTACX_site4811] | 8.51 ± 0.46
79 | ATACAACTAATAAGTAGTACAATATACATATATTAT [XGTACX_site7086] | 8.45 ± 0.38
80 | ATATGACTGTTCATTTGTACGTATAATTATATACGT [XGTACX_site3372] | 8.7 ± 0.32
81 | ATATATATATATATATATATATATATATATTATATA [XGTACX_negctrl_site48] | 9.94 ± 0.35
82 | AAATAATATATTCTATATAATAAATTATAAATATAA [GTGCAC_negctrl_site558] | 7.93 ± 0.51
83 | AAAAAAAATGAAAGGTGTACACATACAAACATAGAA [XGTACX_site3517] | 9.29 ± 0.16
84 | TTTTTTTTTTTTTTTTATTTATATATATATATATAT [CACACA_negctrl_site582] | 9.98 ± 0.23
85 | GTGCAAAATATTTTTACACACAAATTTTTACAACAG [CACACA_site3357] | 8.61 ± 0.18
86 | AAAAATAAATAAGACACACACAAAAAAAAAAAAAAA [CACACA_site1432] | 8.14 ± 0.61
87 | TTAATTATATCAGGACGTACTAATATAAATATATAT [XGTACX_site8909] | 8.48 ± 0.45
88 | GGGATATATTATTATACACACATATATAAAAGCTTT [CACACA_site2445] | 8.54 ± 0.49
89 | AAATGAGATATAAAATGTACATATTGTAAGTAAACA [XGTACX_site1237] | 8.79 ± 0.42
